Measurements reported in the supplement of paper PMC11283458.
Some of the results follow. Many values rest on one well or one pass, so single values are uncertain.

test system: Mef2d microexon (dual-luciferase reporter); assay: delta PSI of alternative exon relative to 0.4% DMSO control (RT-PCR) (percentage points); higher = more exon inclusion; conditions: concentration: not stated (optimised per compound); Neuro-2a
Method: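 Reads PSI of the Mef2d reporter microexon and of endogenous mouse neural alternative exons. dPSI is relative to the 0.4% DMSO control, single replicate.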
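Also: exons read include endogenous Mef2d, Mast2, Ergic3 and Trappc9 microexons plus the longer neural-regulated Zdhhc20, Mgrn1 and Asph cassette exons, alongside the reporter microexon.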

SMILES	delta PSI of alternative exon
O=C1NC(=O)C(=CC=Cc2ccccc2)C(=O)N1	-2.55
CC(=O)OC(C)(C)C=CC(=O)[C@](C)(O)[C@H]1[C@H](O)C[C@@]2(C)[C@@H]3CC=C4[C@@H](CC[C@H](O)C4(C)C)[C@]3(CO)C(=O)C[C@]12C	7.13
COc1ccc(/C=C/C=C2C(=O)NC(=O)NC2=O)cc1	-2
Cc1n[nH]c2ccc(-c3cncc(OC[C@@H](N)Cc4c[nH]c5ccccc45)c3)cc12	8.85
